# Results from the supplement of paper PMC11417369.
# The list shows a part of the results.
# System: PfAP2-HC AP2 domain (GST-tagged)
# Experiment: gcPBM binding intensity (ln(normalized median fluorescence intensity)); higher = stronger DNA binding
# Procedure, shortened: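 After 1 h on an Agilent 4 × 180k array of primer-extended double-stranded 36-bp intergenic genomic probes and negative controls, bound GST-tagged P. falciparum DNA-binding domains were detected with Alexa488 anti-GST antibody and scanned at 488 nm. The domains had been expressed in E. coli, and binding took place in 1× PBS with 1% milk, 0.2 mg/ml BSA, 0.5% salmon testes DNA and 0.03% Triton X-100. Binding intensity is the highest Masliner-normalised natural-log median intensity across replicate spots of either probe orientation.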
row,Sequence,gcPBM binding intensity (ln)
1,TATTTAAAAGCATATACACACAACTGGAATGAAAAG [CACACA_site6128],10.1
2,GTTTCAAAATTAAACACACACAAAAAAAAAAAAAAA [CACACA_site2680],9.72
3,TATTATATCTTTATTATTCATCTAAAATTTGTATTT [TGCATGCA_negctrl_site233],9.67
4,TTGATTTACTATAGATGTACGTAAAATATAAATAAA [XGTACX_site8256],9.47
5,ATAAAAAATAAATATATACATACATACATACATATA [XGTACX_negctrl_site507],9.81
6,ATAAAACAAAAATATAAACACACATACATTGGTTTT [CACACA_site8809],10.1
7,TTTTCAAAAATATACACACACATAAATATAGGTATA [CACACA_site6506],10.1
8,AATTTAAAAGAAAAAGAAAAATAATAAACAGAAGCA [XGTACX_negctrl_site503],9.69
9,TGGGAAAATAATATTTATTTTATATATAAATATATA [CACACA_negctrl_site121],9.3
10,AAAATACTAGATAGGGGAAAAAAAAAAAAAAAAAAA [CACACA_negctrl_site1732],8.84
11,TATTGTAATATTAGCACACATTACCTCACTACAAAT [CACACA_site5419],9.82
12,AACATGAAAATATATGCATTTGTATATATATATATA [TGCATGCA_negctrl_site16],9.59
13,AATAAAACCCCGAAATCACACATTAAATGAAAAATA [CACACA_site4732],9.81
14,AAAGCACCCATGCACACACACAAAGGAAAAGAAAAA [CACACA_site6249],10.3
15,ATAAATGATAAAATTGCATGTGAATGTGAAAATATT [TGCATGCA_site251],9.86
16,TCCATATATTTTAAAAGTACACATAAAAATTATTTA [XGTACX_site8127],9.26
17,AATGGAAAAATAGGCACACACACATATATACATATA [CACACA_site1298],10.6
18,TTGTTTTTCTTTGAATGTACTTAATGATTTCCAATT [XGTACX_site2499],9.79
19,AAAAAAAAAAAAGATTGTACAGAATACTTTTAAAAT [XGTACX_site3576],9.43
20,AAGTTAATGAAAAAATGTACCCAGAGTATTTTAAAA [XGTACX_site2997],9.67
21,ATATAAATAAAATATACACACATACTGTTCATTTAA [CACACA_site7880],9.84
22,TTTTTTTTTTATTTTGCACACTTCTAATTTAGTTCT [CACACA_site5828],9.92

row,Sequence,gcPBM binding intensity (ln)
1,CATACGTTCTAATATATACACACCTGGTATTAATTA [CACACA_site2221],9.72
2,CTATAATGTTTCTTTCAACACACAAAAAATGAACAC [CACACA_site8438],9.75
3,ATTGCGTGATAATAATGTACAAAAAGTAATTTATAT [XGTACX_site8339],9.73
4,AATATATAATTTTTAACACACAAAAAAAAAAAAAAT [CACACA_site3581],9.87
5,AAAAAAAAAAAAAAAACACACACATATAATATATTT [CACACA_site8369],10.1
6,TCATTCTAAATATAAACACACATAAATATATACATT [CACACA_site3354],9.65
7,GGTACGTATTTCAATGCATGTCCATGTACATATAAA [TGCATGCA_site208],9.61
8,TTTTTATTTATATGTATACACACTTTAATTAAAAGT [CACACA_site2525],9.91
9,AATAAAAAAAAATGCACACATATATATATATATATA [CACACA_site2421],9.71
10,TGTTATATATAAATTTGTACACATAAATATTTTTAC [XGTACX_site5873],9.76
11,CAGAATATATTCTATACATGCAATAGGAAATGTAGC [TGCATGCA_site110],9.97
12,AAAAAAAAAAAAAAAAGTACAAAAATATATATGCAT [XGTACX_site8392],9.58
13,TATGCACAGAAACACACACACACAACCAAAAAATAA [CACACA_site5425],10.5
14,AAATTTTCTTAAGGTTGTACTTTTTGAAAATAATCT [XGTACX_site4894],9.22
15,TTTTTATATATATGTATAAATATTTTTTCTATTTAT [XGTACX_negctrl_site606],9.54
16,TGTAGTCTGGAGAAACGTACATAGTATCTGGTAGCT [XGTACX_site2538],9.61
17,AATGTGTAGGTAAGATAATTTTTGTTTTTTTATTTG [CACACA_negctrl_site424],9.86
18,ATATTTATAATATAGAGTACTTACTAAGTTATGGGT [XGTACX_site5405],9.7
19,TTTTTTTCTCTCTCTACACACAAGGTTTAATTTAAA [CACACA_site1690],9.75
20,TATAATATATCTGTAACACACAAAAGTTATATACTT [CACACA_site5578],9.77
21,AACTCACGAGGACACACACACATATATATATATATA [CACACA_site4711],10.2
22,ACATACATACATACATACATACATACATACATACAT [XGTACX_negctrl_site315],9.51

row,Sequence,gcPBM binding intensity (ln)
1,TCATAGGGGTAGAAGGTGCAATAAAAAAGAAGAAAA,9.46
2,GAATTTCAACAAAGTAGTACATTTTATAGTAATTGG [XGTACX_site2319],9.48
3,ATAAATATGTTCTGCACACAAATAAGTGTTTGAAGT [CACACA_site3892],9.84
4,TAATGGAATAAAAATTGTACATATTTTTTTTTTTTT [XGTACX_site7669],9.41
5,TGCCATATATATATTAAATACATAATAATGAGCCTA [GTGCAC_negctrl_site10],9.42
6,AGTCATAAATTTATTTGTACATATAATATATATATA [XGTACX_site8489],9.62
7,ATAAACAAAAAAAAAAAATATATCAATATATATATA [CACACA_negctrl_site299],9.46
8,AAAATATATAATTTTTAACACACAAAAAAAAAAAAA [CACACA_site9192],9.65
9,ATATTAAAAAAATATGCATGCAAATATTATTTTGTA [TGCATGCA_site191],9.57
10,TAAAAATATAAAAAGTGTACAATATATAAATTAATA [XGTACX_site1606],9.85
11,AATCAAATTTTCAAGTCGCACCAAACAAAAAAATGA [CACACA_negctrl_site1397],9.86
12,TTTTTCTTTTTTTTTTTAATAATATATAACAAATTT [CACACA_negctrl_site1724],9.57
13,TATTTAATTAATATAATATTAAACGGAAAAGATAAA [TGCATGCA_negctrl_site148],9.58
14,ATGTTATATTTTTTTATACACACTGGGATATATAAA [CACACA_site6244],9.65
15,TTCATTGTGTTAACGGTGCATATATTTTTTCACCGT [GTGCAC_site9464],9.68
16,TAAAATTTACAACACTGTACTTGAATTTATCTTTAA [XGTACX_site241],9.64
17,CATTAATTTAATAAATGTACATAAAATATATATTAT [XGTACX_site8085],9.54
18,GCAGTATGCGATCAGTGTACGAGTTATTTTATAAAA [XGTACX_site4764],9.34
19,AAATGCGTATATAACGCATGTATAAGAACATTTTTT [TGCATGCA_site225],9.7
20,TTATAATCTATACATATATATGTATGTATGTCTCAA [CACACA_negctrl_site1702],9.69
21,GAAGTATTATTAAAGCTGCACTTTTCTAAAATAAAC [GTGCAC_site9429],9.5
22,ATATTACAAATATAATGTACAAAATATAAATATGCA [XGTACX_site8106],9.78

row,Sequence,gcPBM binding intensity (ln)
1,GTCCTTACTAATTAATTTTAGGCCATATAGTTTGTC [XGTACX_negctrl_site199],9.64
2,GTTATACACATATATACACACATATGTAAATATATA [CACACA_site9080],9.94
3,CTAATATATGTATGCACACACAATATATACATATTT [CACACA_site3360],10.1
4,ACATGATAAATAGTCACACATAAATATAATATATAT [CACACA_site5207],9.89
5,ATTATGGATACATAAACACACATATATATAAAAAAA [CACACA_site4303],9.93
6,ATAATTATATTTTATTCACACATCGTTATATAGTAA [CACACA_site4743],9.61
7,AATTATTCATAAAATGCATGTACATGGTTTAATATT [TGCATGCA_site87],10.2
8,TCGTAAACTTTATGCACACACATATACATATTTCAT [CACACA_site739],10.8
9,ATACATGTTTTATGTGCACACAAAGTTGTTATGAGG [CACACA_site4032],10.1
10,TTATAATTTAATAAATGTACATAAATAATATACATA [XGTACX_site7271],9.34
11,AACACAATAAAAATTAAAAATGTTAAGTAAATATAA [GTGCAC_negctrl_site60],9.72
12,AGACAATATCTTATTTGTACATATGTATTCCTCATA [XGTACX_site5757],9.76
13,TTTTAATTTATCGACACACGCATGAATAGAAATTAG [CACACA_site3361],9.61
14,AAAAAAAAAAAAAAAACACACATATAGATTATTGTA [CACACA_site7797],9.63
15,TATTTTTATTTTCCTTCACACATTTTTTATATTTTT [CACACA_site5830],9.83
16,TATGTATATTTAAATGCATGTGATTATTTTTGACTT [TGCATGCA_site568],9.53
17,TTATAAATTTAAAAAGTGCATAATAATAACAAAAAG,9.7
18,ACTTTTTTTTTTTTTTTAGATTACATAAATATAAAT [CACACA_negctrl_site139],9.59
19,TATACCTATAGACACACACACATAAATAGATATATA [CACACA_site6748],11.1
20,TACACGCATAGACACACACACACACGCATATAAATA [CACACA_site6446],11.3
21,TTTTTTTTTTTAAATAGTACACATATATATATATAT [XGTACX_site6983],9.71
22,AAAAAAAAAAAAAAAAGTACAAAAAAAAAAAAAAAA [XGTACX_site4549],8.73
